Test results published in PubChem BioAssay AID485297 (National Center for Advancing Translational Sciences (NCATS), 2010).
In all, about 320,000 compounds went through this assay and about 9,100 (2.8%) were called active. The inconclusive results got no clear call from the source; some entries with a clear call stand among them for comparison. Calls follow the shape of the dose curve; as a rule, active = well fitted activation curve with a large enough effect; inconclusive = small, poorly fitted or top-dose-only effect; inactive = no such curve, though single readings can be large or run the other way. Potencies of inconclusive entries are left out as doubtful fits.

Assay: qHTS Assay for Rab9 Promoter Activators; also: nearly all actives have a fitted effect of over 60% in size; as to activation, negative = inhibition: % of control where 0% means no effect
Settings: Huh7 Rab9 promoter-luciferase reporter, luminescence, 24 h; series mostly up to 9.22 µM
How it was run: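 Huh7 cells stably carrying Rab9 promoter–luciferase reporter, plated 1500 cells/well, compound added after 2 h and incubated 24 h at 37 °C; luciferase luminescence then read after 10 min with detection reagent.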
Potency is read from the fitted curve at half-maximal effect; tags tell the direction and shape of the fitted curve.

Row | Compound | Potency | activation, negative = inhibition
1 | Nc1nnc(-c2ccc(Cl)cc2Cl)s1 | inconclusive [activator, partial curve] | 
2 | Clc1ccccc1-c1nnc(-c2cccnc2)o1 | inconclusive [activator, partial curve] | 
3 | CC(C)c1nnc(NC(=O)CC(=O)Nc2ccccc2C(=O)O)s1 | active: 3.55 µM | 
4 | O=C(Nc1ccc(C(=O)Oc2ccccc2)c(O)c1)c1ccco1 | active: 2.24 µM | 
5 | O=C(Nc1cccc(-c2ccc(N3CCCCC3)nn2)c1)C(F)(F)F | active: 0.794 µM | 
6 | O=C(NC1CCCCC1)N1CCc2ccccc21 | inconclusive [activator, single point] | 
7 | Cc1ccc(C(=O)N2CCN(Cc3ccc4c(c3)OCO4)CC2)o1 | inactive | 
8 | O=C(Nc1ccc(N2CCOCC2)c(Cl)c1)c1ccccc1Cl | inconclusive [activator, partial curve] | 
9 | Cc1cc(N2CCN(C)CC2)nc2ccc(NC(=O)c3ccc(Br)o3)cc12 | inactive | 
10 | CCOc1ccc(N/C=C/C(=O)c2ccc(C)cc2)c([N+](=O)[O-])c1 | inconclusive [activator, partial curve, poor fit] | 
11 | NS(=O)(=O)c1ccc(NC(=O)CSC2CCCCC2)cc1 | inconclusive [activator, single point] | 
12 | Cc1cc(=O)n(CCc2ccccc2)c(O)c1C#N | inconclusive [activator, single point] | 
13 | CC1=N/C(=C\c2ccc(OC(C)C)cc2)C(=O)N1c1ccc(C(=O)O)cc1 | inactive | 
14 | O=C(Nc1ccc(F)cc1)Nc1ccc(Cl)cn1 | inconclusive [activator, partial curve] | 
15 | COc1ccc(CC(=O)Nc2ccc(-c3cn4ccc(C)cc4n3)cc2)cc1 | inconclusive [activator, partial curve] | 
16 | Cc1nc(C)n(CC(C)C(=O)N2CCN(S(=O)(=O)c3ccc(Cl)cc3)CC2)n1 (centres undefined) | inconclusive [activator, single point] | 
17 | CC1CCN(C(=O)CN2C(=O)c3ccccc3S2(=O)=O)CC1 | active: 2.51 µM | 
18 | Cc1nn(Cc2c(Cl)cccc2Cl)c(Cl)c1/C=N/NC(=O)c1cccnc1 | inconclusive [activator, single point] | 
19 | O=C(CSc1ccc(F)cc1)NC1CCCCC1 | inconclusive [activator, partial curve] | 
20 | COCCNc1nc(-c2cc(C)c(C)cc2C)cs1 | inconclusive [activator, single point] | 
21 | Nc1cccc(-c2nc3ccc(N)cc3s2)c1 | inconclusive [activator, single point] | 
22 | Cn1cc(/C=C2\SC(=O)N(c3ccccc3)C2=O)c2ccccc21 | active: 3.98 µM | 
23 | Cc1cc(N)n2nc(-c3ccc(C(C)(C)C)cc3)cc2n1 | active: 2.51 µM | 
24 | NS(=O)(=O)c1ccc(CCNC(=O)COC(=O)CCc2ccccc2)cc1 | inactive | 
25 | O=[N+]([O-])c1ccc(O)c(/C=N/Nc2ccccc2[N+](=O)[O-])c1 | inconclusive [activator, partial curve] | 
26 | CC(C)CCNC(=O)C(=O)NC1CCCC1 | inconclusive [activator, single point] | 
27 | CN(C)/C=N/c1nc(-c2ccc3ccccc3c2)cs1 | active: 0.355 µM | 

Row | Compound | Potency | activation, negative = inhibition
28 | CN(C)c1ccc(C(=O)c2ccccc2)cc1 | active: 3.16 µM | 
29 | Cc1nc2ccccn2c1C(=O)Nc1ccc(Cl)cc1 | inconclusive [activator, single point] | 
30 | CC(=O)c1sc(NC(=O)COc2ccc(Cl)cc2Cl)nc1C | inconclusive [activator, partial curve] | 
31 | COc1ccc(CNC(=O)C(C)Cc2ccccc2)cc1O (centres undefined) | inconclusive [activator, single point] | 
32 | O=C(NC12CC3CC(CC(C3)C1)C2)c1ccc(-c2ccc(Cl)cc2)o1 | active: 3.16 µM | 
33 | Clc1ccccc1OCc1nnc(-c2ccccc2)o1 | active: 3.55 µM | 
34 | c1ccc2sc(N3CCCN(Cc4nc(-c5cnccn5)no4)CC3)nc2c1 | inactive | 
35 | Cc1ccccc1Nc1nc(N)nc(COC(=O)C2CCCCC2)n1 | inactive | 
36 | Cc1cc(C(=O)Cn2nnc3ccccc3c2=O)c(C)n1Cc1cccs1 | active: 0.447 µM | 
37 | COC(=O)c1sc(NC(=O)/C=C/c2ccc(C)o2)nc1C | inconclusive [activator, partial curve] | 
38 | CN1CCN(/N=C/c2ccc(C#N)cc2)CC1 | inconclusive [activator, single point] | 
39 | CCn1nnnc1SCC(=O)Nc1nnc(C(C)C)s1 | inactive | 
40 | CCn1cc(CNC(=O)C2CCC(=O)N(Cc3ccc(Cl)cc3)C2)cn1 (centres undefined) | inactive | 
41 | Cc1cc[n+](CC(=O)c2cc3ccccc3oc2=O)cc1 | inactive | 
42 | COc1ccc2oc(C(=O)OCC(=O)N3CCN(S(=O)(=O)c4ccc(C)cc4)CC3)c(C)c2c1 | inactive | 
43 | CCOC(=O)CNC(=O)c1ccc(SCC)cc1 | inconclusive [activator, partial curve] | 
44 | Cc1cc(=O)oc2cc(NC(=S)NNC(=O)c3c(Cl)cnn3C)ccc12 | active: 0.891 µM | 
45 | CCN(CC(=O)Nc1cc(Cl)ccc1C)C(=O)CCS(=O)(=O)c1ccc(C)cc1 | inactive | 
46 | COc1ccc(-n2nnnc2-c2ccc(S(C)(=O)=O)cc2Cl)cc1 |  | inactive: -3% [at 1.84 µM]
47 | COc1ccc(CCc2nc(-c3cccs3)no2)cc1 | inconclusive [activator, partial curve] | 
48 | C(=C\c1ccccn1)/c1ccccn1 | inconclusive [activator, partial curve, poor fit] | 
49 | COC(c1ccccc1)c1nnc(CCC(=O)N(C)Cc2cccc(-n3cccn3)c2)o1 (centres undefined) | inconclusive [activator, single point] | 
50 | COc1ccccc1C(=O)NC(=O)COC(=O)c1ccc([N+](=O)[O-])cc1 | inactive | 
51 | Cc1ccc(CNC(=O)CN(C)S(=O)(=O)c2cnc[nH]2)cc1 | inconclusive [activator, single point] | 
52 | Cc1nn(C)cc1/C=C/C(=O)c1ccc(O)cc1 | inconclusive [activator, single point] | 
53 | O=C(Cn1cnc2ccccc2c1=O)Nc1ccc2c(c1)OCO2 | inconclusive [activator, single point] | 
54 | COC(=O)CSc1nc2cc3c(cc2cc1C)OCCO3 | inactive | 

Row | Compound | Potency | activation, negative = inhibition
55 | O=C(Nc1ccc([N+](=O)[O-])cc1)c1ccccc1 | active: 3.16 µM | 
56 | Nc1nc(N2CCN(C(=O)c3ccco3)CC2)nc2ccccc12 | inconclusive [activator, partial curve] | 
57 | CCOC(=O)N1CCN(C(=O)c2cc(COc3ccc(F)cc3F)on2)CC1 | inconclusive [activator, single point] | 
58 | COC(=O)c1nc2ccc(N3CCOCC3)cc2c(C)c1C(=O)OC | active: 2.82 µM | 
59 | COc1cc(N2Cc3ccccc3C2)ccc1C=O | inconclusive [activator, full curve] | 
60 | Cc1ccc(-n2c(C)c(C)c3c(NCCO)ncnc32)cc1 | inconclusive [activator, single point] | 
61 | O=C(Nc1ccc(-c2cn3ccsc3n2)cc1)C1CC1 | active: 1.58 µM | 
62 | Cc1cc(C)n2nc(C(=O)Nc3cccc(S(=O)(=O)N(C)c4ccccc4)c3)nc2n1 | inactive | 
63 | COc1ccc(-n2nc(C(=O)NCC(=O)Nc3ccccn3)c3ccccc3c2=O)cc1Cl | inactive | 
64 | CCc1cc(Cn2nc(-c3ccccc3)cc2C(=O)NCC2CC2)on1 | inactive | 
65 | Cc1ccc2[nH]c(C)c(CCN(Cc3cccnc3)C(=S)NC(C)(C)C)c2c1 | inconclusive [activator, single point] | 
66 | O=C(Cc1c(F)cccc1Cl)Nc1nc2ccccc2s1 | inconclusive [activator, single point] | 
67 | O=C(NCC1CCCO1)c1cc2ccccc2o1 (centres undefined) | inconclusive [activator, single point] | 
68 | COc1ccccc1NC(=O)CSc1nc2sc(C)c(C)c2c(=O)n1Cc1ccco1 | inconclusive [activator, single point] | 
69 | COc1ccc(Cn2c(CCC(=O)Nc3ccccc3OC)nc3cccnc32)cc1 | inactive | 
70 | Cc1ccc(CN2CC(C(=O)N3CCN(c4ccccc4Cl)CC3)CC2=O)cc1 (centres undefined) | inactive | 
71 | Cc1nc2cc(NCc3ccc(Cl)cc3)ccc2n1C | active: 0.447 µM | 
72 | Cc1ccc2nc(NC(=O)C3CC3C)sc2c1 (centres undefined) | inconclusive [activator, full curve] | 
73 | CN(C)c1ccc(/C=N/n2ncc3ccccc32)cc1 | inconclusive [activator, single point] | 
74 | Cn1c(O)c(N=Nc2ccccc2[N+](=O)[O-])c2ccccc21 | inconclusive [activator, partial curve] | 
75 | Cc1ccc(C2NC(=O)c3c(sc4c3CCN(C)C4)N2)s1 (centres undefined) | inconclusive [activator, partial curve] | 
76 | CC(C)(C)NC(=S)NCc1ccc2c(c1)OCO2 | inconclusive [activator, single point] | 
77 | CCCC(=O)NCCc1c2n(c3ccc(OC)cc13)CCCc1ccccc1-2 | inactive | 
78 | Cc1cccnc1Nc1nc(-c2ccc(F)cc2)cs1 | active: 2.82 µM | 
79 | NC(=O)C1(NC(=O)[C@@H]2CC3(CC(c4cccc(NC(=O)[C@@H]5CCC(=O)N5)c4)=NO3)CN2C(=O)c2ccccc2)CC1 (some centres undefined) | inactive | 
